Assay results from the supplement of paper PMC10126150.
Sequences with one replicate were seen in a single cluster, so their values are uncertain.

System: ATP
Assay: switch fluorescence ratio, 500 uM ATP over buffer (Cy3 cluster intensity, sum of 5 cycles each) (fold (ratio)); higher = stronger signal-on switching upon ATP binding; sequences stand for … in TCGTCGGCAGCGTCAGATGTGTATAAGAGACAGTTTTTTTTTTTTTTTTTTTTTTTTT…TC
Conditions: aptamer strand: ATP DNA aptamer (quencher-CACCTGGGGGAGTATTGCGGAGGAAGG + anchor), 100 nM annealed; ATP concentration: 500 uM; one replicate
In short: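 The fluorescence ratio divides summed target-cycle Cy3 intensity by summed buffer-cycle Cy3 intensity for each cluster and is averaged per switch-domain sequence. Cy3-labelled switching-strand clusters on a modified Illumina MiSeq flow-cell were annealed to 100 nM quencher-labelled ATP aptamer, then imaged in selection buffer and again after 15 min with 500 uM ATP at 22 °C. Five such cycles were run, with NaOH stripping and re-annealing between them, and clusters outside 100-1000 RFU were excluded.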
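Also: ATP exposure 15 min at 22 °C before imaging.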

| Sequence | switch fluorescence ratio |
| --- | --- |
| GGCAGTTAGC | 1.02 |
| TTGGTGCATT | 1.05 |
| CGGTGTTAA | 0.975 |
| AGGTGGAGTT | 0.96 |
| GGGCATTTAC | 1.55 |
| GAGGCCATAT | 1.19 |
| TTAGTGGGTC | 0.996 |
| CCCAACTAAT | 1.01 |
| TGTCCTAACC | 0.998 |
| GGGGGGACCC | 0.927 |
| TCCCTTGAAG | 0.977 |
| AAGTGTGTTA | 1.01 |
| TGGATTTCTA | 0.961 |
| CCATCATCGG | 1.01 |
| AGGCGTGCGG | 1.02 |
| TTACGCCTTG | 0.955 |
| GTGATATATG | 0.968 |
| CACACTGCGT | 1.06 |
| ATACTTGAGG | 0.993 |
| AAACCAGAGT | 0.996 |
| GCTTGCTCTT | 1.01 |
| AATCCCTCTG | 1.1 |
| AATCATGGGA | 1.03 |

| Sequence | switch fluorescence ratio |
| --- | --- |
| GCGGTGTCAT | 1.05 |
| GCACCGTTCG | 1.03 |
| ATGCTGACGG | 1.05 |
| ATCGGCAGTA | 1.13 |
| GGTTTCTAAA | 0.975 |
| CGGTGCTTGC | 1.04 |
| TGGTATAAGG | 1 |
| AACGAGCACA | 1.38 |
| ACCAGCGGCT | 1.05 |
| GGCGTGAGAA | 1.01 |
| ATTGACAG | 1.02 |
| GGTGAATAGA | 1.01 |
| TGGGTACAA | 1.05 |
| CGGGTCGTAT | 1.01 |
| CAGGATCGCG | 0.956 |
| GTTAGAGATG | 1.01 |
| CGTTCAAGGC | 1.28 |
| ATCCTACCGG | 1.04 |
| CGTGGGCGGG | 1 |
| AAGACCTAGT | 0.975 |
| CGGTCGCGTT | 0.96 |
| TATACTATGA | 0.962 |
| ACTCATTTGA | 1.04 |

| Sequence | switch fluorescence ratio |
| --- | --- |
| TTTTACCG | 0.985 |
| TATCTGTTGC | 0.991 |
| CTCAATGATA | 1.03 |
| CTGCTACCCC | 1.33 |
| TCGATCTGAG | 1.01 |
| TTTAGGTACC | 1.01 |
| AGGGCTTGCG | 0.999 |
| ACGTTCTTGC | 0.962 |
| TACTTCCCGT | 1.18 |
| TATTTTTGTA | 1.03 |
| ACATACACTG | 1.27 |
| CCGGGTCAAA | 1.51 |
| ACGCGAATCC | 1.59 |
| CTTATCTGGA | 1 |
| ATGGGGATCT | 0.976 |
| AGGTGTCGT | 0.994 |
| TCCGGGACTT | 1.02 |
| CCAGTTTTA | 0.966 |
| GATGATGCGT | 1.1 |
| AGGTCGGCGG | 1.05 |
| TGAAATACTG | 1 |
| TTTCGGGACA | 1.03 |
| CGCGTGTGT | 1.05 |

| Sequence | switch fluorescence ratio |
| --- | --- |
| CCGGTTTTAA | 1.01 |
| TGTTAGCTTG | 0.932 |
| CAAGTCTTCG | 0.977 |
| GAGCAATAGG | 2.18 |
| CGGGGAAAA | 0.998 |
| CCTTCGATGG | 1.3 |
| TGAAGGCAGT | 1.09 |
| CCTTTGAATC | 1.32 |
| GCGAGGAATT | 0.983 |
| GGGACGGAGC | 1.09 |
| GGTTCTGCTT | 0.988 |
| ACCTTTACTA | 1.17 |
| AGCCGGGGGT | 0.989 |
| TCGGCATGT | 0.994 |
| CTTGACGGGT | 1.02 |
| AATTTTGAAA | 1.01 |
| CTACGGGGTC | 1.2 |
| AACAGGTTAT | 0.964 |
| GATGCGACTT | 1.01 |
| AGTTGCTTA | 1.02 |
| AAGATTTCC | 1.02 |
| ACGAGTTGCA | 0.996 |
| TTGCCGGCTT | 1.02 |

| Sequence | switch fluorescence ratio |
| --- | --- |
| CCCCGGTTC | 2.02 |
| CTCGAAGTTC | 1.08 |
| GAAGTCCTCA | 1.03 |
| TATTGGCGTA | 0.966 |
| CGTCCCATAA | 2.29 |
| TAAGGGGCGA | 0.952 |
| TGAAGAAGCT | 1.14 |
| AAAACGAGCG | 1 |
| TTGCCATATT | 1.02 |
| TGGTGGGCAG | 1 |
| TTTAACACGT | 1.01 |
| TTTGGACA | 1.03 |
| TTTTAGACTT | 0.992 |
| TAACACGACT | 1.07 |
| ATTTAGAGCC | 0.945 |
| GACGCTCGCC | 1.86 |
| AGATACTTGC | 1.05 |
| CGACCGTTCG | 0.997 |
| ACCTAAAGCC | 1.12 |
| AAAAGAAGAT | 0.965 |
| TATAAAGTTC | 1.05 |
| CGCTTACAAT | 1.06 |
| TTAAATAAAC | 1.01 |

| Sequence | switch fluorescence ratio |
| --- | --- |
| TCAGAATTTG | 0.938 |
| AACCGTAGGG | 0.996 |
| GAGAGATTCG | 0.99 |
| TTATTGGGCG | 0.958 |
| ATCGTTTCGG | 0.972 |
| TTTAATCGCA | 1.01 |
| CGGATATACA | 1.03 |
| CGAAGGTCGA | 0.976 |
| CAAGTTTCGC | 0.963 |
| AATCGCAACA | 1.22 |
| CATAGGCTGT | 1.03 |
| GAGTCAACTT | 0.958 |
| CATGGTCTTC | 1.07 |
| ACCAACGGTC | 1.09 |
| AGCACAGTTA | 1.01 |
| TCGCTGATGT | 1 |
| GTTTAAATTG | 0.985 |
| ACTGGTTTAC | 1.04 |
| GGTCCCGTAT | 0.957 |
| CGGACTCAAC | 1.56 |
| GAGTTACGTC | 0.972 |
| GTCTTTTTAT | 0.985 |
| AAGTACTCGG | 1.15 |

| Sequence | switch fluorescence ratio |
| --- | --- |
| TACCAGTTGT | 1.05 |
| ATTACGGCTA | 1.08 |
| TTTATTTGGG | 0.968 |
| GCTTTAAGGA | 1.01 |
| GTAAACCGGG | 1.01 |
| GCTGGGAGG | 1.01 |
| CACTGGGAGA | 1.02 |
| TTATTGAGA | 0.996 |
| CCGGATTTAA | 1.05 |
| AATACGGAGC | 1.13 |
| AGGTAACCCC | 1.11 |
| TCTTATCGGG | 1.05 |
| ACATCTGCAT | 1.32 |
| TGGCAAGTTG | 0.993 |
| AGAATCGCGT | 1.04 |
| AGGCACGTGA | 0.979 |
| GATTGGTAT | 0.974 |
| GTGCGGAGCT | 1.03 |
| GACAGCAGTT | 1.14 |
